About 14,000 (4.5%) of roughly 310,000 compounds showed an effect of 50% or more. The effect is printed as a negative number. Some of the results follow. Where a SMILES comes first, the peptide text is derived from it. [ ]: non-standard residue; d: D form. The star is where a group is joined. Hyp = O=C(O)[CH]1C[CH](O)CN1; Cbz = O=C(OCc1ccccc1)*; OBn = c1ccc(CO*)cc1
Target: human ether-à-go-go-related gene (hERG) potassium channel (human, UniProt Q12809)
Assay: primary screen, population patch clamp on CHO cells stably expressing hERG
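Note: peak tail current of the secondary pulse compared with the same well before compound.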

Sequence of human ether-à-go-go-related gene (hERG) potassium channel (Q12809 whole entry, looked up): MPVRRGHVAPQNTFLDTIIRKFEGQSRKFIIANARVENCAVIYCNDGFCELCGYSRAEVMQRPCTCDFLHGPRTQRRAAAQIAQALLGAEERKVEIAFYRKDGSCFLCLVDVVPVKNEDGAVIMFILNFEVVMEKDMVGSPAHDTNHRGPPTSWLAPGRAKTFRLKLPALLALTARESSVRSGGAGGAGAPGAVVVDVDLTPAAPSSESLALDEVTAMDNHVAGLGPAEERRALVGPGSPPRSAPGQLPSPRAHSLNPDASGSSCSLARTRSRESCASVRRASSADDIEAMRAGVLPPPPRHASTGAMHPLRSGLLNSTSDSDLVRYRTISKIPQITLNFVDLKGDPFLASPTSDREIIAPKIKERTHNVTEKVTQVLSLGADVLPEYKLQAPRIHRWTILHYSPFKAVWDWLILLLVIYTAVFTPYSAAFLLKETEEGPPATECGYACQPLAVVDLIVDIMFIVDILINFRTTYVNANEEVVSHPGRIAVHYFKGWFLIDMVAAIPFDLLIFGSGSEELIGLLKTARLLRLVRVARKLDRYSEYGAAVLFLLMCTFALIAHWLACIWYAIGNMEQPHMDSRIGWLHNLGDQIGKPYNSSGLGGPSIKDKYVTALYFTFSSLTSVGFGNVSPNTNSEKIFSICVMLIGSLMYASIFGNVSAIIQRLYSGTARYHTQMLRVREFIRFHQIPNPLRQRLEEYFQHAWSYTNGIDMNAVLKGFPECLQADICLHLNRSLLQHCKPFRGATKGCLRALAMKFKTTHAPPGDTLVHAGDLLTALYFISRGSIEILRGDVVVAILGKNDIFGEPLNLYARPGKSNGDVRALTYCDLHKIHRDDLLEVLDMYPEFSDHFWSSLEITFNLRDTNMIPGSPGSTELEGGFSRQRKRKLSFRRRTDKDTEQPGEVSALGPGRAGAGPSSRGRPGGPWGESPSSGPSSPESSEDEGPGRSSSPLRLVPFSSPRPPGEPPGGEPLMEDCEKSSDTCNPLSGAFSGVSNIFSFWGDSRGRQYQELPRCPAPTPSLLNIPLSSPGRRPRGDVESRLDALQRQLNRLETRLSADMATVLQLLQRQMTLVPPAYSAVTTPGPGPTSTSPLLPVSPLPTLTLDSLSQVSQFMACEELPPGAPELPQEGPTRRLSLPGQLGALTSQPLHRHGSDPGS

SMILES | hERG current change (%, negative = inhibition) at 10uM [%]
COc1ccc(C(C(=O)NCC2CCCO2)N(C(=O)CNC(=O)c2ccco2)c2ccccc2)cc1OC (stereo not shown) | 19.4
COc1ccc(NC(=O)C2CCN(S(C)(=O)=O)CC2)cc1 | 0.57
O=C(O)C(=O)O.O=C(c1cccc(F)c1)N1CCC(N2CCOCC2)CC1 | 11.1
COc1ccc(-c2nc(-c3ccccc3OC)no2)cc1OC | -5.13
COc1ccc(CNC(=O)CN(Cc2ccc(Cl)cc2)C(=O)c2csnn2)cc1 | -71.7
CCOC(=O)Cn1nc(C)c([N+](=O)[O-])c1C | 19.1
Cc1cccn2c(=O)nc(SCC(=O)N3CCC(Cc4ccccc4)CC3)nc12 | -78.9
COc1cc(/C=N/Nc2cccc(C)c2)ccc1OC(=O)c1cccs1 | -12.4
CCn1c(C)nc2cc(NC(=O)Nc3cccc(C(C)=O)c3)ccc21 | -32.9
Cc1ccc(C(=O)Nc2nc(-c3cccnc3)cs2)o1 | -49.2
Cc1ccc(Cn2ccsc2=NC(=O)COC(=O)c2ccc(NC(=O)CC#N)cc2)cc1 | -1.29
COC(=O)C(Cc1ccccc1)NC(=O)CNC(=O)c1ccc(Br)cc1 (stereo not shown) | -29.1
CCOc1ccccc1C1NC(=O)c2ccccc2O1 (stereo not shown) | -1.13
CC(=O)Nc1cc2c(ccc3ccccc32)oc1=O | 17.2
COc1ccc(C2CC(c3ccccc3)=NN2C(=O)COC(=O)c2cccnc2Cl)cc1 (stereo not shown) | 5.03
O=C(NCCc1c[nH]c2ccccc12)c1cnccn1 | 6.99
COC(=O)c1sc(NC(=O)CSc2nnnn2-c2cccc(OC)c2)nc1C | 9.4
CS(=O)(=O)CCC(C(=O)O)N1C(=O)c2ccc(Oc3ccc(Cl)cc3)cc2C1=O (stereo not shown) | 5.78
CN1C=CC=C/C1=C1\SC(=S)N(Cc2ccccc2)C1=O | -14.8
CCOC(=O)C1CCN(CCC(=O)Nc2ccc(Br)cc2)CC1 | -63.5
Cc1csc(NC(=O)c2ccco2)n1 | 2.89
O=C(/C=C/c1ccc(F)cc1)NNC(=O)CCN1CCN(Cc2ccccc2)CC1 | -49.9

SMILES | hERG current change (%, negative = inhibition) at 10uM [%]
CC1CCN(C(=O)C2CCN(S(=O)(=O)c3cccnc3)CC2)CC1 | 2.17
CCOC(=O)N/N=C/c1c(C)c(C(=O)c2ccc(F)cc2)n2ccccc12 | 14.6
Nc1nonc1-n1nnc(C(=O)N/N=C/c2ccoc2)c1CSc1ccccc1 | 8.02
CC(=O)Oc1ccccc1/C=C/c1nc2ccccc2c(=O)o1 | 11.8
Cc1onc(-c2c(Cl)cccc2Cl)c1C(=O)NNc1ccccc1 | 5.29
COc1ccc2ccccc2c1CN1CCSCC1 | 8.1
O=S1(=O)CCN2C=Nc3sc4c(c3C2=N1)CCCC4 | -1.29
CN1CCN(C=Nc2nc3ccccc3nc2N2CCCC2)CC1 | -34.1
CCCn1nnnc1SCC(=O)N1CCOCC1 | 19.2
Cn1nnnc1SCc1nnc(-c2ccccc2Br)o1 | 2.47
COC(=O)c1cccc(NC(=O)CCc2ccccc2)c1 | -23.3
CCCCCCSc1nnc(N)s1 | -5.74
O=C(Cn1cc(C(=O)C2CC2)c2ccccc21)Nc1ccccc1Cl | 15.1
CCn1c(SCC#N)nc2cc(S(=O)(=O)N3CCOCC3)ccc21 | 11.2
CCOC(=O)c1ccc(NC(=O)Cn2c(=O)oc3ccccc32)cc1 | 10.9
CCOC(=O)c1c(NC(C)=O)sc(/C(C)=N/Nc2ccc(C(=O)O)cc2)c1C | 12.3
CCc1ccc(CNC(=O)C2CCN(S(=O)(=O)N3CCCC3)CC2)cc1 | -0.739
Cc1cccc(NC(=S)NC(C)(C)CC(C)(C)C)c1 | 11.9
COc1ccc(N2CCN(C(=O)CCc3ccc(S(=O)(=O)NC(C)C)cc3)CC2)cc1 | -7.82
O=C(CSc1nnc(-c2c[nH]c3ccccc23)o1)N1CCCCC1 | 0.267
O=[N+]([O-])c1ccc(S(=O)(=O)N2CCN(c3ccnc4cc(Cl)ccc34)CC2)cc1 | -73.5
Cc1ccc(C(=O)Nc2ccccc2SCC2CSc3nc4ccccc4c(=O)n32)cc1 (stereo not shown) | -68.4

SMILES | hERG current change (%, negative = inhibition) at 10uM [%]
O=C(CCCC(=O)OCC(Cl)=C(Cl)Cl)Nc1ccccc1F | 8.74
CN(C)Cc1c(C(=O)N/N=C/c2ccc(OCc3c(F)cccc3Cl)cc2)nnn1-c1nonc1N | 15.6
O=C(Nc1cccc(O)c1)c1ccccc1 | 0.537
CCOc1ccc(/C=C2\SC(=S)NC2=O)cc1OC | 26.3
O=C(c1ccc(CS(=O)(=O)c2ccccc2)o1)N1CCC2(CC1)OCCO2 | -8.16
CCC(=O)NC1=C(C#N)C2(CCCC2)Cc2ccccc21 | -1.89
CCOc1ccc2[nH]c3c(N4CCc5ccccc5C4)ncnc3c2c1 | 5.49
Cc1ccc(NC(=O)COC(=O)c2ccc(Br)o2)cc1S(=O)(=O)N1CCCCC1 | 2.27
CCCCCCCCCCOC(=O)C[N+](C)(C)CC1CCCCC1O.[Cl-] (stereo not shown) | -38.2
CC1CCCCC1NC(=O)COC(=O)CN1C(=O)c2ccccc2C1=O (stereo not shown) | 1.51
COc1ccccc1C(=O)N/N=C(\C)c1cccnc1 | -10.8
CCC(CO)Oc1cc(NC(=O)c2ccc(F)cc2)c2ncn(C(C)C)c2c1 (stereo not shown) | 10.5
CC1Cc2ccccc2N1C(=O)CSc1nnc(CNc2ccccc2)o1 (stereo not shown) | -12.8
COc1cc(/C=C2\SC(=S)N(CCC(=O)N3CCCCC3)C2=O)cc(OC)c1OC | 3.71
CC1=C(C(=O)OC2CCCC2)C(c2ccc(C)o2)C2=C(CC(c3cccs3)CC2=O)N1 (stereo not shown) | -20.7
Cc1ccc(S[C@@H](CCN2CC[C@H](C(C)(C)C)CCC2=O)c2ccccc2)cc1 | 7.63
Cc1ccccc1OCC(=O)N1N=C(c2cccnc2)CC1(O)C(F)(F)F (stereo not shown) | -5.38
Cc1ccc2c(c1)c1c(n2CC(O)Cn2c(C)nc3ccccc32)C(=O)CCC1 (stereo not shown) | 8.22
O=C(Nc1cccc(F)c1)C1CCCCC1 | -9.22
CCOC(=O)c1ccc(-c2ccc(/C=C(\C#N)C(=O)NCC3CCCO3)o2)cc1 (stereo not shown) | 0.577
CCOc1cc(C2NN=C(c3ccc(C)cc3)S2)ccc1O (stereo not shown) | 9.67
CCc1ccc(C(=O)c2oc3nc(C)cc(C)c3c2N)cc1 | 16.6

SMILES | hERG current change (%, negative = inhibition) at 10uM [%]
COc1ccc(/C=C/C(=O)c2ccc([N+](=O)[O-])o2)cc1 | 9.27
O=C(CCNS(=O)(=O)c1ccc(OC(F)(F)F)cc1)N1CCN(C/C=C/c2ccccc2)CC1 | -81.5
O=[n+]1c2c(n([O-])c3cc(F)c(N4CCCC4)cc31)CCC2 | 0.13
Cc1ccc(CNCc2cccnc2)s1.Cl | 1.1
O=C(NCC(=O)N1CC(O)CC1C(=O)N1CC(O)CC1C(=O)OCc1ccccc1)OCc1ccccc1 (stereo not drawn) (Cbz-Gly-[Hyp]-[Hyp]-OBn; configuration not given here) | 15.5
O=C(COC(=O)c1ccc(Cl)c(S(=O)(=O)N2CCOCC2)c1)NCc1ccco1 | -17
COc1ccccc1-n1c(-c2ccccc2)c[n+]2c1CCc1ccccc1-2.[Br-] | -74.1
O=C(O)c1ccc2oc(=O)c(S(=O)(=O)c3ccccc3)cc2c1 | 18
Nc1ncc2c(n1)-c1ccoc1CC2 | 27.8
Cc1cccn2cc(CCNS(=O)(=O)c3cccs3)nc12 | -3.37
CCOC(=O)CN(C(=O)CNC(=O)c1cccs1)C(C(=O)NC1CCCC1)c1cccnc1 (stereo not shown) | 3.79
COc1ccc(C(=O)NCCCc2nc3ccccc3n2Cc2cc(C)ccc2C)cc1OC | -39.7
CCCc1c(C)nn(-c2ncccc2[N+](=O)[O-])c1C | 6.23
c1ccc(N2OCC3Cn4c(nc5ccccc54)C32)cc1 (stereo not shown) | -5.05
O=C(c1cc(=O)[nH]c2ccccc12)N1CCN(S(=O)(=O)c2ccc(Cl)cc2)CC1 | -23.8
N#Cc1cc2c(nc1SCC(=O)Nc1ccc(Cl)cc1)C1CCN2CC1 | -7.69
CCOC(=O)CSC1=C(C#N)C(c2ccccc2OCC)C(C(=O)OCC)C(=O)N1 (stereo not shown) | -7.93
Cc1cc(C(=O)N2CCCC(C(=O)c3cccc(C(F)(F)F)c3)C2)nc(C)n1 (stereo not shown) | -9.14
O=C(COc1ccc(/C=N/NC(=O)c2ccncc2)cc1)Nc1cccc([N+](=O)[O-])c1 | 14.1
COc1ccc(Br)cc1CN(C)CC(=O)Nc1cc([N+](=O)[O-])ccc1OC | 3.6
CCOC(=O)c1[nH]c(C)c(C(=O)OCC)c1C | 4.39
COc1ccc(C(=O)Nc2ccccc2C(=O)N/N=C/c2ccccc2OC)cc1 | 13.7

Reference: publication PMC4336329 (PLoS ONE, 2015)
